Assay results reported in paper PMC12658005 (Communications Biology, 2025).

Biological target: the molecule itself
Test: […], in 25 mM HEPES pH 7.15, 150 mM NaCl; […]

B1: pilus shaft from the F-like plasmid pED208 (natural protein)
chain: TDLLAGGKDDVKATFGADSFVMMCIIIAELIVGVAMYIRTKNLLILLGLVVVIVFTTVGLTFIK
notes: also called conjugative pilus; conjugation pilus
binding result: binds
